Sequences and labels used below:
B1: tRNA (parent)
chain: CUCUCGGUAGCCAAGUUGGUUUAAGGCGCAAGACUUUAAUUUAUCACUACGAAAUCUUGAGAUCGGGCGUUCGACUCGCCCCCGGGAGAUUUUUUCCUCGAGCAA

The source of these data is the RNAGym collection of RNA variant scans (doi:10.1101/gad.245936.114).

Variants at the floor of the assay are shown more often than the library holds them.

In the series the parent is B1. As to the kind of experiment: nonsense suppression (GFP-seq) (ratio to wild type); higher = more function; SUP4oc tRNA, yeast GFP reporter sort-seq. A digest of the protocol: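 Yeast were grown in raffinose/galactose medium with 80 mg/L adenine, each strain bearing a genome-integrated ochre-suppressor tRNA variant from a ~3% random-mutation library, a galactose-driven GFP ochre reporter, and RFP. After sorting into GFP/RFP bins, every bin was sequenced on an Illumina platform at phred ≥30. The GFPSEQ value, a measure of nonsense suppression, is the weighted bin median GFP/RFP relative to the unmutated parent tRNA, using each variant's estimated cell share per bin as the weight. Only variants with ≥100 reads and ≥30 cells were included.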
For the variant A62G C75U C83A, the nonsense suppression is ≤ 0.026.

Take A9C A31C U71A: the nonsense suppression is ≤ 0.026.

As for G69A U70C, the nonsense suppression is ≤ 0.026.

On to A31U G61A, for which the nonsense suppression is ≤ 0.026.

On to A23U G28U G78C, for which the nonsense suppression was ≤ 0.026.

As to U4A U63A, the nonsense suppression was determined as 0.155.

As to U21A A33C G69U, the nonsense suppression was ≤ 0.026.

For U2C U55A, the nonsense suppression is ≤ 0.026.

As to A14C G26U C34G G73A, the nonsense suppression was ≤ 0.026.

Take G19U A54U C72G: the nonsense suppression is ≤ 0.026.

With A24C G67U G85U, the nonsense suppression is ≤ 0.026.

C11A A14C G18U G88A: the nonsense suppression was ≤ 0.026.

Take U20A U55A G73A C80G: the nonsense suppression was ≤ 0.026.

On to U22A A87G, for which the nonsense suppression was 0.501.

As for C29A, the nonsense suppression was 0.113.

With G15A U57G C79G, the nonsense suppression was ≤ 0.026.

As for U63C C75A, the nonsense suppression was found to be 1.04.

For the variant U8C A54U, the nonsense suppression is ≤ 0.026.

Consider C1U C5U U71G, for which the nonsense suppression was ≤ 0.026.

For C3U G84U, the nonsense suppression was ≤ 0.026.

For the variant C11G C12U A89U, the nonsense suppression was ≤ 0.026.

Turning to G15C G32C U63C G88C, the nonsense suppression is ≤ 0.026.

For G15U G26A A31C C34U, the nonsense suppression was ≤ 0.026.

For the variant U8C G10A, the nonsense suppression is ≤ 0.026.

A24C C75G: the nonsense suppression was determined as 1.11.

With G66A C75U, the nonsense suppression stood at 0.368.

On to U8G G32A C79A, for which the nonsense suppression was ≤ 0.026.

As to U22G A31U U57A A74G C80U, the nonsense suppression is ≤ 0.026.

On to A23G G25A, for which the nonsense suppression is ≤ 0.026.

Regarding G32A C56A A60G C72A, the nonsense suppression is ≤ 0.026.

In the case of C1G A23C, the nonsense suppression is ≤ 0.026.

In the case of C64U U71C C77U, the nonsense suppression is ≤ 0.026.

As for A9G A13G, the nonsense suppression stood at 0.205.

With A24U U71G, the nonsense suppression is ≤ 0.026.

Turning to U16A C75U C77G C81U, the nonsense suppression was ≤ 0.026.

Turning to U57C C82U, the nonsense suppression is ≤ 0.026.

On to C12G U55C G59U, for which the nonsense suppression was ≤ 0.026.

Take G15A A87G: the nonsense suppression was ≤ 0.026.

As for G18U C27A G28U U57G U76A, the nonsense suppression is ≤ 0.026.

As for C29A A33U U63C, the nonsense suppression is ≤ 0.026.

Take A54U U70C C80G: the nonsense suppression was ≤ 0.026.

For C3A C5G U21G A23G, the nonsense suppression was ≤ 0.026.

As to U8C C11A U17G, the nonsense suppression was ≤ 0.026.

Regarding C1G G69A, the nonsense suppression was ≤ 0.026.

G26U U71G G85U: the nonsense suppression is ≤ 0.026.

Regarding A54C C68A U71G U76A, the nonsense suppression was ≤ 0.026.

As for C11A G67U, the nonsense suppression is ≤ 0.026.

With C27G G73A, the nonsense suppression was ≤ 0.026.

C34U A60G G78A: the nonsense suppression was ≤ 0.026.

As to C79A G84A A87G G88A, the nonsense suppression was ≤ 0.026.

Turning to A23G G59C C64G C77U G78A, the nonsense suppression was ≤ 0.026.

Regarding U8A C56G C83G, the nonsense suppression was ≤ 0.026.

On to U55A G59U G67C G85U, for which the nonsense suppression was ≤ 0.026.

As to A14U A33C U58A, the nonsense suppression is ≤ 0.026.

In the case of A24U U55C G73U G85A, the nonsense suppression is ≤ 0.026.

As for U21A A23C C80G G84U, the nonsense suppression is ≤ 0.026.

A30G C77A G78A: the nonsense suppression was ≤ 0.026.

Turning to G6C A87U, the nonsense suppression is ≤ 0.026.

Regarding U58A U70C, the nonsense suppression was ≤ 0.026.

On to U17C G28A C64U G86U, for which the nonsense suppression was ≤ 0.026.

Turning to C27U, the nonsense suppression is 0.183.

Turning to U20A A24U, the nonsense suppression was 0.0696.

In the case of U58G C68A A74G, the nonsense suppression was ≤ 0.026.

On to C5A A13C G19U G32A G66C U71C, for which the nonsense suppression was ≤ 0.026.

As for C3A A13G C75G, the nonsense suppression is ≤ 0.026.

In the case of G6A A23C U57G U58G G86A, the nonsense suppression is ≤ 0.026.

Turning to C12U U20C, the nonsense suppression is 0.177.

Consider U2A G26C C82G, for which the nonsense suppression is ≤ 0.026.

Regarding G66C C68A G69C, the nonsense suppression is ≤ 0.026.

Consider U2A A24U C27A G61C G66A, for which the nonsense suppression is ≤ 0.026.

Regarding C5G G25C G26U A62U G66A, the nonsense suppression is ≤ 0.026.

As for A13U G78U, the nonsense suppression was determined as 0.236.

For C80A C81U, the nonsense suppression is ≤ 0.026.

As to G6C A24U C68G, the nonsense suppression was ≤ 0.026.

Take G10C A30G A60U: the nonsense suppression is ≤ 0.026.

Turning to G7U U17A C29G U58G, the nonsense suppression was ≤ 0.026.

For the variant C11A G15U, the nonsense suppression was ≤ 0.026.

A54C G67U: the nonsense suppression is ≤ 0.026.

Consider G18U A30G A31U U57C, for which the nonsense suppression is ≤ 0.026.

G7A G15U C34U G84C: the nonsense suppression was ≤ 0.026.

On to C80A C82A, for which the nonsense suppression is ≤ 0.026.

For the variant C1U G73U U76A, the nonsense suppression is ≤ 0.026.

With C1G G59A G61U A87U, the nonsense suppression is ≤ 0.026.

For U21C G25C U70C G84U, the nonsense suppression is ≤ 0.026.

In the case of U8G U20G U21A A33C U55C, the nonsense suppression is ≤ 0.026.

As to C12G A14C A23U G69A G78A, the nonsense suppression was ≤ 0.026.

On to U2C C27U A31G U57C, for which the nonsense suppression was ≤ 0.026.

For the variant C3U G73A, the nonsense suppression was 0.0656.

With U16C A30G U55G, the nonsense suppression is ≤ 0.026.

Regarding A14C A33U U63G G88U, the nonsense suppression was ≤ 0.026.

In the case of C5G U17C C68U, the nonsense suppression was ≤ 0.026.

Turning to U4G U16G G61A U76A C79U, the nonsense suppression was ≤ 0.026.

With G15A A60U, the nonsense suppression is ≤ 0.026.

Regarding U4A U58G, the nonsense suppression is ≤ 0.026.

In the case of U4A A14C C29A A60U G86A, the nonsense suppression is ≤ 0.026.

Take C5A A14U A87U: the nonsense suppression was ≤ 0.026.

Turning to U2C C3A, the nonsense suppression was ≤ 0.026.

Regarding U22A U76A, the nonsense suppression is 0.0747.

For A33U G66A, the nonsense suppression is ≤ 0.026.

In the case of U16G G25A U35G U55G G65A, the nonsense suppression was ≤ 0.026.

In the case of U2C G10A, the nonsense suppression is ≤ 0.026.

In the case of C1U G7C G69C G85C, the nonsense suppression is ≤ 0.026.

For the variant U8G G10A U20G, the nonsense suppression is ≤ 0.026.

For the variant A9C C83A, the nonsense suppression is ≤ 0.026.

Regarding A54C G59U G65A A74C, the nonsense suppression is ≤ 0.026.

Regarding G15C U16A U21A, the nonsense suppression was ≤ 0.026.

On to A9G C27G C29G G73C C80A A87G, for which the nonsense suppression is ≤ 0.026.

Consider C12A G78U, for which the nonsense suppression was ≤ 0.026.

Regarding U22C U70A, the nonsense suppression is ≤ 0.026.

With A13G C79G, the nonsense suppression was ≤ 0.026.

As to U8G G18C G59A, the nonsense suppression was ≤ 0.026.

Take G6C A74C C83U: the nonsense suppression is ≤ 0.026.

U4C A23U A54G G59U G67C: the nonsense suppression was ≤ 0.026.

As to U4A U22C U63G, the nonsense suppression was ≤ 0.026.

Regarding A24C U55A G61U, the nonsense suppression was ≤ 0.026.

Regarding U16A A23G C82U, the nonsense suppression was ≤ 0.026.

For the variant C3G G18C U20A, the nonsense suppression is ≤ 0.026.

For the variant C11A A33G U76A, the nonsense suppression is ≤ 0.026.

Regarding A13U U55A G65C G88U, the nonsense suppression was ≤ 0.026.

A13U G19C U21G C27A C34G A62C: the nonsense suppression is ≤ 0.026.

Turning to C83U A87G, the nonsense suppression came to 0.0621.

Take G6A A54U U57G A60G G86C: the nonsense suppression was ≤ 0.026.

With C27G G88U, the nonsense suppression was ≤ 0.026.

Turning to U21A C56G C68U U71G U76C, the nonsense suppression was ≤ 0.026.

As for U2C G6C G61A G86A, the nonsense suppression is ≤ 0.026.

As for U2A U4G G73C, the nonsense suppression is ≤ 0.026.

Take G15C C27A U58G G69A U71G: the nonsense suppression is ≤ 0.026.

Turning to C56U U58C, the nonsense suppression was ≤ 0.026.

With G28A U57C, the nonsense suppression is ≤ 0.026.

With C72G G86C, the nonsense suppression is ≤ 0.026.

Consider U63C G73A A74G, for which the nonsense suppression was ≤ 0.026.

In the case of U8A A54U, the nonsense suppression is ≤ 0.026.

On to A14C C82U, for which the nonsense suppression was ≤ 0.026.

With U57G C72A C77G, the nonsense suppression was ≤ 0.026.

C11U A14U G78A: the nonsense suppression is ≤ 0.026.

For U63G G66U G84A, the nonsense suppression was ≤ 0.026.

In the case of A24U C34A U35A, the nonsense suppression is ≤ 0.026.

Turning to U22A A31C U55G G59C G65C G86A, the nonsense suppression is ≤ 0.026.

With G25C G61U G67U, the nonsense suppression was ≤ 0.026.

Take C1U C29A G84C: the nonsense suppression is ≤ 0.026.

C3A A24C U58C C72G: the nonsense suppression was ≤ 0.026.

As for U20G A31C G59U A87C, the nonsense suppression is ≤ 0.026.

Take C27A A33U: the nonsense suppression is ≤ 0.026.

As to G7A G26U C56A, the nonsense suppression was ≤ 0.026.

For G67A A74U, the nonsense suppression worked out at 0.0276.

As to C5U A24G C34A, the nonsense suppression was ≤ 0.026.

Take G59A U76A G78A G86C: the nonsense suppression is ≤ 0.026.

G15A U20C: the nonsense suppression was ≤ 0.026.

For U22A G66U G86C, the nonsense suppression was ≤ 0.026.

With U20C A24U C27U, the nonsense suppression was ≤ 0.026.

As for A9U A62C, the nonsense suppression was ≤ 0.026.

As to U2C U35A U57C A62C, the nonsense suppression was ≤ 0.026.

For the variant G7U C79A G85U G86U G88U, the nonsense suppression was ≤ 0.026.

Consider U20C U58G A60U U63G G66A, for which the nonsense suppression is ≤ 0.026.

As for U4A U17C G32A C77G, the nonsense suppression is ≤ 0.026.

For the variant A24G G25C A31U C75G, the nonsense suppression is ≤ 0.026.

For G7A U35C G66C G67A, the nonsense suppression is ≤ 0.026.

As to C27U A54U G59U G85U, the nonsense suppression is ≤ 0.026.

C5A U20G G88A: the nonsense suppression is ≤ 0.026.

A14G U16C A31G C56A U70G U76A: the nonsense suppression is ≤ 0.026.

Turning to U2A C34A G88U, the nonsense suppression was ≤ 0.026.

Regarding G7U U55A, the nonsense suppression is ≤ 0.026.

Turning to C27G C34U, the nonsense suppression is ≤ 0.026.

Turning to G18U U63G C80U, the nonsense suppression was ≤ 0.026.

Take G7U G26A G66A: the nonsense suppression was ≤ 0.026.

As to G18U G67A, the nonsense suppression is ≤ 0.026.

Take U16A G69A: the nonsense suppression was ≤ 0.026.
